# Measured values as given in PubChem BioAssay (Tox21).
# The inconclusive results got no clear call from the source; some entries with a clear call stand among them for comparison. Potencies of inconclusive entries are doubtful fits and often do not repeat. Active and inactive are the calls of the source. Calls follow the shape of the dose curve; as a rule, active = well fitted inhibition curve with a large enough effect in the signal ratio in the repeat runs (not every such curve was filed as active); inconclusive = weak or mixed curves, or effect the other way; inactive = no such curve, though single readings can be large or run the other way; the % refers to the signal ratio.
# Molecular target: Estrogen receptor beta (Homo sapiens) (UniProt Q92731)
# Experiment: qHTS assay to identify small molecule antagonists of the estrogen receptor beta (ER-beta) signaling pathway (AID 1259378)
# Settings: ER-beta-UAS-bla HEK293T, beta-lactamase FRET ratio, 16 h; activity, negative = inhibition: at 92.4 µM (top of the series) unless noted
# In short: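 Antagonist mode: compounds added to beta-lactamase reporter HEK293T ER-beta-UAS cells stimulated with E2 (1nM final), 16 hr at 37C. LiveBLAzer B/G FRET substrate, 2 hours room temperature, fluorescence read-out.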
# % is scaled to controls: 0 for no effect and ±100 for the full control effect; potency is read from the fitted curve at half-maximal effect; tags tell the direction and shape of the fitted curve or compound fluorescence and quenching.
# UniProt Q92731, sequence (Q92731 whole entry, looked up): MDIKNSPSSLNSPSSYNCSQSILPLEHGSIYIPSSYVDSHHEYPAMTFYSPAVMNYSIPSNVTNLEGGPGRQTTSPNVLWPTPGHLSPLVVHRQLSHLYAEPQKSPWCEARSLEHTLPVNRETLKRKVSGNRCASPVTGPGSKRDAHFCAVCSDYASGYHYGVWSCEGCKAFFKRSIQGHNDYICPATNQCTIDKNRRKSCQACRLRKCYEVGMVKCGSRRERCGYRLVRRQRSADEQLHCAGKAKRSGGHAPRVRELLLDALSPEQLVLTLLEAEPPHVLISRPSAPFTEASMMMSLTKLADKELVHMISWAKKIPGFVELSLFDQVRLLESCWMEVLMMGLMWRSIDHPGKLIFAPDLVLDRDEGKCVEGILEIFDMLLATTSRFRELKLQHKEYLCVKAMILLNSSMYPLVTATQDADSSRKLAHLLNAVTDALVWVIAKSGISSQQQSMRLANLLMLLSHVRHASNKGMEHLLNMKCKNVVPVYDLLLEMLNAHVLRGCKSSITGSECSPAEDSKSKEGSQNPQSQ
SMILES,Potency,"activity, negative = inhibition"
N#CC(CCc1ccc(Cl)cc1)(Cn1cncn1)c1ccccc1 (stereo unspecified),active: 30.6 µM,
Nc1nc(N)nc(Cl)n1,,inactive: 0.249%
CC(Cl)Cl,,inactive: -26.2%
CN/C(=N\[N+](=O)[O-])NCC1CCOC1 (stereo unspecified),,inactive: 4.68%
O=C(O)C(Br)CBr (stereo unspecified),,inactive: 6.43%
OCCCBr,,inconclusive: 25.6%
CC(Br)C(=O)O (stereo unspecified),,inconclusive: -29.2%
Nc1ccc(Cl)cc1C(=O)c1ccccc1,active: 30.6 µM,
OC(c1ccc(F)cc1)(c1cncnc1)c1ccccc1Cl (stereo unspecified),"inconclusive: 61.1 µM [inhibitor, single point]",
[O-][Cl+2]([O-])O,"inconclusive: 0.233 µM [cytotoxic, single point]",
CCCCC(CC)COP(=O)(Oc1ccccc1)Oc1ccccc1 (stereo unspecified),,inconclusive: -42.3%
CO/C=C(/C(=O)OC)c1ccccc1COc1cccc(C(F)(F)F)n1,active: 3.85 µM,
N#CSCc1ccccc1,,inactive: 3.42%
CC/C(=N\OC/C=C/Cl)C1=C(O)CC(C2CCOCC2)CC1=O (stereo unspecified),,inactive: -2.22%
CC(C)N(C(=O)COc1nnc(C(F)(F)F)s1)c1ccc(F)cc1,"inconclusive: 48.6 µM [inhibitor, partial curve]",
O=S(=O)(c1ccc(Cl)cc1)c1ccc(Cl)cc1,inconclusive: 16.5 µM [inhibitor],
CS/C(C)=N/OC(=O)N(C)SN(C)C(=O)O/N=C(\C)SC,"inconclusive: 0.969 µM [cytotoxic, single point]",
c1ccc(OP(Oc2ccccc2)Oc2ccccc2)cc1,,inconclusive: 28.2%
C=CCC1([C@H](C)CCC)C(=O)NC(=O)NC1=O,,inactive: -0.313%
O=C(CBr)c1ccc(O)cc1,,inconclusive: 1.9%
C#C[C@]1(O)C=C[C@H]2[C@@H]3CCC4=CC(=O)CC[C@@H]4[C@H]3CC[C@@]21CC,"inconclusive: 13.3 µM [inhibitor, full curve]",
CCC(C)(CC)c1cc(NC(=O)c2c(OC)cccc2OC)on1,"inconclusive: 52.4 µM [inhibitor, partial curve]",inconclusive: -42.1%
CCCSP(=O)(OCC)SCCC,,inconclusive: 6.82%
CC(C)(C)C(O)/C(=C\c1ccc(Cl)cc1Cl)n1cncn1 (stereo unspecified),"inconclusive: 83 µM [rising, single point]",
COP(=S)(OC)Oc1cc(Cl)c(Br)cc1Cl,,inconclusive: -58.8%
